Source: PubChem BioAssay (Tox21)
“And” between values parts separate entries of the source, which are not always exact repeats. Equal values may be shown once. Inconclusive means that the source gave no clear call. Such entries were picked first, then a sample of the others. Entries that show only a call come without a potency. For some of these results: A potency beside an inconclusive call is a rough fit, not a confirmed value. Where a structure was tested more than once in an assay, its records may differ in their call. The source made the active and inactive calls. Unless noted, calls come from the whole dose curve; as a rule, active = well fitted curve in the direction sought with a large enough effect in the repeat runs; inconclusive = weak or mixed curves; inactive = no such curve, though single readings can be large; an effect the other way counts as inactive or inconclusive.

Columns and labels:
[1] = qHTS assay to identify small molecule antagonists of the thyroid receptor (TR) signaling pathway - cell viability counter screen (AID 743064); details: GH3.TRE-Luc viability, CellTiter-Fluor, 24 h; activity change, negative = cytotoxic: at 70.3 µM (top of the series) unless noted; note: nearly all actives have a fitted effect of over 50% in size
Summary of the method: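 CellTiter-Fluor readout, 30 min at 37 °C/5% CO2, following 23.5 h incubation of GH3.TRE-Luc cells with test compound and 1 nM T3 (final).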

[2] = qHTS assay to identify small molecule antagonists of the estrogen receptor alpha (ER-alpha) signaling pathway - cell viability counter screen (AID 743074; calls by dose curve;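 note: HEK293 cells carrying ER-alpha-UAS-bla reporter stimulated with 17beta-estradiol; nearly all actives have a fitted effect of over 45% in size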)
[3] = qHTS assay to identify small molecule antagonists of the thyroid receptor (TR) signaling pathway (AID 743065); note: nearly all actives have a fitted effect of over 55% in size
Summary of the method: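 GH3.TRE-Luc rat pituitary cells carrying two TR response elements driving luciferase were plated for 4 h, given compound plus 1 nM T3 (final), and incubated 23.5 h at 37 C. ONE-Glo luminescence measured reporter inhibition; CellTiter-Fluor fluorescence tracked cytotoxicity.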

[4] = system: thyroid hormone receptor (rat, GH3 cells); assay: qHTS assay to identify small molecule agonists of the thyroid receptor (TR) signaling pathway (AID 743066; calls by dose curve); details: GH3.TRE-Luc cells, TR agonist luciferase, 24 h; activation: at 83.9 µM (top of the series) unless noted
Potency is the fitted concentration of half-maximal effect; tags give direction and shape of the fitted curve.

## Cc1cccc(C)c1NC(=O)CN(CC(=O)O)CC(=O)O
[1]
  Potency: inconclusive: 3.35 µM [rising, single point]
[2]
  Potency: inactive

## CCCCC(CC)COC(=O)CC#N (centres undefined)
[1]
  Potency: inactive
[2]
  Potency: inconclusive: 692 nM [rising, full curve, poor fit]

## CN(C)CCCN1c2ccccc2Sc2ccccc21
[3]
  Potency: inconclusive: 11.4 µM [inhibitor, partial curve]

## CCCCCCCCCCCCCCCC(=O)O
[1]
  activity change, negative = cytotoxic: inconclusive: 33.5%
[2]
  Potency: inconclusive: 197 nM [cytotoxic, full curve, poor fit]

## C1=C\CC/C=C\CC/C=C\CC/1
[3]
  Potency: inactive

## c1ccc2c(CC3=NCCN3)cccc2c1
[1]
  Potency: inconclusive: 33.5 µM [cytotoxic, single point]
[2]
  Potency: inconclusive: 5.35 µM [cytotoxic, partial curve, poor fit] and inconclusive: 10.7 µM [cytotoxic, single point]

## COS(C)(=O)=O
[3]
  Potency: inactive

## CCCc1nn(C)c2c(=O)[nH]c(-c3cc(S(=O)(=O)N4CCN(C)CC4)ccc3OCC)nc12
[3]
  Potency: inactive

## CCN(CC)CC(=O)Nc1c(C)cccc1C
[3]
  Potency: inactive

## O=P(c1ccccc1)(c1ccccc1)c1ccccc1
[3]
  Potency: inconclusive: 48.6 µM [inhibitor, partial curve]

## COc1cc(C=O)ccc1OC(=O)C(C)C
[3]
  Potency: inactive

## CC(=O)OCC(CCn1cnc2cnc(N)nc21)COC(C)=O
[3]
  Potency: inactive

## Cc1occc(=O)c1O
[3]
  Potency: inactive
[4]
  Potency: active: 50.9 µM

## Cc1ccc2c(c1)OCC(=O)CO2
[3]
  Potency: inactive
